# Reference: the BET-seq Pho4 binding data (Le et al. 2018)
# The other results are listed elsewhere or left out. The energies were worked out here from pooled read counts, against the library average; single values are noisy.
# Molecular target: T1, Pho4 (S. cerevisiae) (UniProt P07270)
# T1 sequence: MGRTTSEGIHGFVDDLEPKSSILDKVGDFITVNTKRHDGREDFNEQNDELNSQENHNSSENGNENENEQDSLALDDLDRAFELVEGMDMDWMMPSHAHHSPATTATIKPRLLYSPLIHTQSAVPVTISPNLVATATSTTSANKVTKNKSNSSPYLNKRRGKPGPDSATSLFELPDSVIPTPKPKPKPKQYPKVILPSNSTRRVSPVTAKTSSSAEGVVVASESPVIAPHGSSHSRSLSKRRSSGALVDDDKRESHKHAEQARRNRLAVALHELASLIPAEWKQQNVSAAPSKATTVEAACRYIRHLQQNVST
# Experiment: relative binding free energy (BET-seq); higher = weaker binding
# Conditions: reference: library average
row,Sequence,relative binding free energy [kJ/mol]
1,TCTCGCACGTGTGGTG,0.335
2,TTAAGCACGTGGAGCG,0
3,TAGATCACGTGTTATG,0.544
4,TTTAGCACGTGATTGT,0.335
5,AGATACACGTGGTTGG,0.0418
6,CGGTGCACGTGGGCGT,-1.13
7,CGGGGCACGTGAAAGG,-0.0837
8,ATAATCACGTGTGCGG,0.209
9,GTTGTCACGTGATGTC,1.42
10,ATTACCACGTGTGGTT,-0.126
11,CTATTCACGTGGGGCG,0.335
12,TACTGCACGTGGATGG,-0.377
13,GGCTTCACGTGTGCGG,1.38
14,ATCGTCACGTGAGGTA,1.34
15,ATGGTCACGTGAGATG,1.09
16,CAGGGCACGTGTTGGA,-0.209
17,TCTGGCACGTGTGGTG,-0.126
18,GTCTTCACGTGGATGT,0.962
19,ATCGGCACGTGGTCGT,-0.418
20,GTGGTCACGTGTGGGG,0.879
21,GGTGCCACGTGGGTGA,-0.962
22,TATGACACGTGTGGGC,0.167
23,TTCGACACGTGGAGGG,0

row,Sequence,relative binding free energy [kJ/mol]
1,TGGCTCACGTGTAGGT,0.335
2,GTTTTCACGTGTTTTA,1.3
3,CTTTGCACGTGACTTT,0.837
4,GTTTTCACGTGATCGT,0.962
5,CTTAGCACGTGGGGAT,-0.586
6,TTAAACACGTGTGGGA,0.46
7,GGGGTCACGTGCCGGT,0.377
8,TCAGGCACGTGGAGGC,0.0837
9,TGATGCACGTGAATGT,0.92
10,GATTGCACGTGGACGT,0.0418
11,AGGGTCACGTGCCGTT,-0.209
12,GTGCTCACGTGAGGAT,1.42
13,GCTTGCACGTGTAGGT,0.251
14,GAGTGCACGTGATTAG,0.879
15,CCGGTCACGTGGGCTT,0.544
16,AGCGGCACGTGTTATT,0.126
17,GGGTTCACGTGCGGGC,0.879
18,AATATCACGTGTCTTA,0.879
19,CGTGTCACGTGATTTT,1.09
20,CAAGGCACGTGTATGG,-0.0418
21,TGTGCCACGTGAGGCG,0.251
22,ATTAACACGTGGATGG,-0.167
23,TGGATCACGTGTATTT,0.293

row,Sequence,relative binding free energy [kJ/mol]
1,GTGGGCACGTGCGGAG,-0.335
2,TAAGTCACGTGGGTGG,0.126
3,TGTTTCACGTGGAGCC,1.55
4,GTTGACACGTGGGTTG,-0.0837
5,GATTACACGTGTTGAT,0.753
6,TTAGGCACGTGATTGT,0.126
7,ATAGACACGTGGAGTG,-0.0418
8,GTGTCCACGTGGTTTA,0.586
9,AGAATCACGTGTTAGT,0.335
10,TTATTCACGTGTTGGA,1.3
11,TTGAGCACGTGGATCA,0.167
12,CTCGTCACGTGGCGGG,-0.251
13,AAGGGCACGTGTGATG,0
14,GTTTACACGTGATGGC,1
15,CTGTACACGTGTAGTA,0.544
16,CAGTACACGTGTGTTG,0.544
17,GAGAACACGTGGGTGA,0.209
18,CTCGTCACGTGTGTTT,0.753
19,GAGGTCACGTGTGTGA,0.879
20,GTAATCACGTGTTGTT,0.544
21,TGGAGCACGTGTATTT,-0.335
22,TTGACCACGTGAGTGT,0.377
23,TAGTTCACGTGTATGA,1.34

row,Sequence,relative binding free energy [kJ/mol]
1,AGTTTCACGTGAAAGT,1.3
2,CGTGTCACGTGGTGAC,0.251
3,ATTTTCACGTGTGGAT,1.13
4,CGGTACACGTGAGAGT,1.55
5,ACGTTCACGTGGTGGT,0.628
6,AGTATCACGTGATGCG,1.26
7,TGCATCACGTGAATGT,1.09
8,AAGGTCACGTGTGGCG,0.46
9,GGTGGCACGTGAATTG,0.335
10,TTGAGCACGTGTCCGT,-0.335
11,TGATGCACGTGACGTG,0.126
12,GCTGGCACGTGTGTAT,-0.0837
13,TGTAACACGTGAAGGC,1.72
14,GTGTACACGTGCGGAT,0.293
15,TTGTGCACGTGGAAGG,0.293
16,TCTATCACGTGGGCGG,-0.293
17,TTTTTCACGTGCGCGG,0.502
18,TAGGCCACGTGGGGAG,-0.92
19,CGACGCACGTGGGTGG,-1.26
20,CTGGGCACGTGCTGTG,-0.879
21,TGTTACACGTGAATTG,1
22,TAAGGCACGTGGAGTT,-0.377
23,TTTGGCACGTGGCCCG,-0.837

row,Sequence,relative binding free energy [kJ/mol]
1,CGTGGCACGTGAGTGG,0.251
2,GGGGGCACGTGGGAGC,-0.837
3,AGTGGCACGTGGACGG,-0.209
4,GGGGACACGTGACAGT,1.21
5,GGGCTCACGTGTTGAA,0.711
6,GGATGCACGTGAATTT,1.72
7,AATACCACGTGGGGTT,-1
8,CTGTTCACGTGGACGT,1.55
9,GGGATCACGTGTGTAT,1.59
10,TATGACACGTGTTTAG,-0.0418
11,CGGCGCACGTGTGTTA,0
12,GTGGTCACGTGATCTA,0.92
13,TGAAGCACGTGGAAGG,-0.753
14,CTTTTCACGTGGAGTA,1.42
15,TGTGGCACGTGTCGTT,-0.126
16,TTATGCACGTGGTTTA,-0.251
17,TAGTTCACGTGTCTTG,1.05
18,GGTGCCACGTGTATTG,-0.377
19,TATTTCACGTGATGTA,1.13
20,GTCGTCACGTGATGTT,0.795
21,TGTTGCACGTGCGGAC,-0.0837
22,AGGGCCACGTGGTTAG,-0.209
23,GGGTCCACGTGGGATA,0
